Source: publication PMC8161014
These are yes or no findings as the source states them, for the method shown. In cells and extracts the contact can be indirect. Some entries that bind do so weakly or less than the wild type. For some assays here: Where a sequence is shown, tags or fusion partners need not be part of it.

Chains of the proteins cited; added tags and fusions are not shown. Lines headed by an entry give the natural chain unless they say otherwise; changes in a name come on top. A line that says so, or that is headed by a name, gives the form on record, which may keep a tag or linker. Residues count along the entry.
StrepII-FLAG-tagged DCAF12 (∆1–11) (Q5T6F0, residues 12-453): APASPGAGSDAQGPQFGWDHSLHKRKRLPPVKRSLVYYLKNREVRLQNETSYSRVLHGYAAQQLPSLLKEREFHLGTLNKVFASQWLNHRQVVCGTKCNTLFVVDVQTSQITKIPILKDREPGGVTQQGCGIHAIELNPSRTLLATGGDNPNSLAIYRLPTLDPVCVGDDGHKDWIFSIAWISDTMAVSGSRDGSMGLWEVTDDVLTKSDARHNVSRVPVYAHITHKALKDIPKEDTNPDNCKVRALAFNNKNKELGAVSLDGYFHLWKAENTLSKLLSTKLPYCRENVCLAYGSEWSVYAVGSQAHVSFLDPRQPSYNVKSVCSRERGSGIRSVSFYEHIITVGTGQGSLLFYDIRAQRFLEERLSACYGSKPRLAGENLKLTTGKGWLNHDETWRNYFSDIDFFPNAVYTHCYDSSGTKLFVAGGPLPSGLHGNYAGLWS
StrepII-FLAG-tagged DCAF12 (∆1–38) (Q5T6F0, residues 39-453): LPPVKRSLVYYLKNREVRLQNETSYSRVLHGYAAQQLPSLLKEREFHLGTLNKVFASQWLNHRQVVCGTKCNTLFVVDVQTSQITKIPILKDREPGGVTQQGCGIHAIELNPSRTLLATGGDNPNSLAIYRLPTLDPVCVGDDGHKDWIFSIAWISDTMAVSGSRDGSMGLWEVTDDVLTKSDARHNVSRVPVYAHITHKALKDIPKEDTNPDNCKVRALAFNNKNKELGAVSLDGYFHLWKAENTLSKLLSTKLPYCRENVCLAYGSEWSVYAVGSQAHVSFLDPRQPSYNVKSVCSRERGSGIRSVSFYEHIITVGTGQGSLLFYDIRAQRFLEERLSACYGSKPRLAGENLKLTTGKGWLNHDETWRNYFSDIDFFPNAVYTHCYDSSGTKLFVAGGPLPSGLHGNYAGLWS
UniProt Q5VU92: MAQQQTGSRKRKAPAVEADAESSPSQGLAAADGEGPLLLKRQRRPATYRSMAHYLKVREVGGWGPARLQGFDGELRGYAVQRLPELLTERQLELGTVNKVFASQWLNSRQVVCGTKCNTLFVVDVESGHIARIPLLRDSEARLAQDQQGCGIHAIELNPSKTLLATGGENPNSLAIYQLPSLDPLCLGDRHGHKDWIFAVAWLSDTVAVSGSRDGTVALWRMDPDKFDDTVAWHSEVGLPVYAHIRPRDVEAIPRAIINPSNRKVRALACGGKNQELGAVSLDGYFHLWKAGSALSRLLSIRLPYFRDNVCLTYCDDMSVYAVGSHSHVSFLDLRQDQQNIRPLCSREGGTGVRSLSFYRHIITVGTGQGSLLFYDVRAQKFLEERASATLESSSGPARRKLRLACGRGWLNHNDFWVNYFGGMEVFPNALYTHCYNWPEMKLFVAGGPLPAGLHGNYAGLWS
UniProt Q5VW00: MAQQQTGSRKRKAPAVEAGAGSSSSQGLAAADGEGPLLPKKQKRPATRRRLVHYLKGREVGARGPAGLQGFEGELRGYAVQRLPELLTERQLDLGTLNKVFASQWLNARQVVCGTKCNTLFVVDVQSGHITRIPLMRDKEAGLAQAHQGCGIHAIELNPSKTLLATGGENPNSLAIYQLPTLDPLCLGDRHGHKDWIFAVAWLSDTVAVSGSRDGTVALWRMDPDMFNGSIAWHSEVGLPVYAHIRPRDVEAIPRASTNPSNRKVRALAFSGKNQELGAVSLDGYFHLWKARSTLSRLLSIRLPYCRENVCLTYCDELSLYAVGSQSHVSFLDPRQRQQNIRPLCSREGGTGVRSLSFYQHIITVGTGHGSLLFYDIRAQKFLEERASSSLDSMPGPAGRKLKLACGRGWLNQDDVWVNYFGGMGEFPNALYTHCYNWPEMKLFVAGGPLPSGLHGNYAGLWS

Tests used:
[1] = molecular target: StrepII-FLAG-tagged DCAF12 (∆1–11) (human) (UniProt Q5T6F0); assay: pull-down; StrepII-FLAG-tagged substrate receptors transfected into HEK293T, MLN4924 for 6 h before harvesting; whole-cell lysates subjected to affinity purification with Strep-TactinXT resin; eluates immunoblotted for endogenous proteins
[2] = molecular target: StrepII-FLAG-tagged DCAF12 (WT) (human) (UniProt Q5T6F0); assay: as above
[3] = molecular target: StrepII-FLAG-tagged DCAF12L1 (human) (UniProt Q5VU92); assay: as above
[4] = molecular target: StrepII-FLAG-tagged DCAF12L2 (human) (UniProt Q5VW00); assay: as above
[5] = molecular target: StrepII-FLAG-tagged DCAF12 (∆1–38) (human) (UniProt Q5T6F0); assay: as above
[6] = molecular target: StrepII-FLAG-tagged DCAF12 (∆1–38) (human) (UniProt Q5T6F0); assay: co-IP; MOV10 co-precipitated with SF-DCAF12^ΔNLSs in several cancer cell lines (Figure S1a,b,c; legend not shown)
[7] = molecular target: StrepII-FLAG-tagged DCAF12 (WT) (human) (UniProt Q5T6F0); assay: pull-down; HEK293 cells with doxycycline-inducible HA-tagged MOV10 (WT) or (E1002X) transfected with StrepII-FLAG-tagged DCAF12 (WT) or (∆1–38); DOX 100 ng/mL 24 h, MLN4924 for the last 6 h; affinity purification of whole-cell lysates, immunoblot
[8] = molecular target: StrepII-FLAG-tagged DCAF12 (∆1–38) (human) (UniProt Q5T6F0); assay: as above

Row | binding [1] | binding [2] | binding [3] | binding [4] | binding [5] | binding [6] | binding [7] | binding [8] | Binder
1 | binds | binds | no binding | no binding | binds | binds |  |  | endogenous MOV10 (protein, UniProt Q9HCE1 1-1003) MPSKFSCRQLREAGQCFESFLVVRGLDMETDRERLRTIYNRDFKISFGTPAPGFSSMLYGMKIANLAYVTKTRVRFFRLDRWADVRFPEKRRMKLGSDISKHHKSLLAKIFYDRAEYLHGKHGVDVEVQGPHEARDGQLLIRLDLNRKEVLTLRLRNGGTQSVTLTHLFPLCRTPQFAFYNEDQELPCPLGPGECYELHVHCKTSFVGYFPATVLWELLGPGESGSEGAGTFYIARFLAAVAHSPLAAQLKPMTPFKRTRITGNPVVTNRIEEGERPDRAKGYDLELSMALGTYYPPPRLRQLLPMLLQGTSIFTAPKEIAEIKAQLETALKWRNYEVKLRLLLHLEELQMEHDIRHYDLESVPMTWDPVDQNPRLLTLEVPGVTESRPSVLRGDHLFALLSSETHQEDPITYKGFVHKVELDRVKLSFSMSLLSRFVDGLTFKVNFTFNRQPLRVQHRALELTGRWLLWPMLFPVAPRDVPLLPSDVKLKLYDRSLESNPEQLQAMRHIVTGTTRPAPYIIFGPPGTGKTVTLVEAIKQVVKHLPKAHILACAPSNSGADLLCQRLRVHLPSSIYRLLAPSRDIRMVPEDIKPCCNWDAKKGEYVFPAKKKLQEYRVLITTLITAGRLVSAQFPIDHFTHIFIDEAGHCMEPESLVAIAGLMEVKETGDPGGQLVLAGDPRQLGPVLRSPLTQKHGLGYSLLERLLTYNSLYKKGPDGYDPQFITKLLRNYRSHPTILDIPNQLYYEGELQACADVVDRERFCRWAGLPRQGFPIIFHGVMGKDEREGNSPSFFNPEEAATVTSYLKLLLAPSSKKGKARLSPRSVGVISPYRKQVEKIRYCITKLDRELRGLDDIKDLKVGSVEEFQGQERSVILISTVRSSQSFVQLDLDFNLGFLKNPKRFNVAVTRAKALLIIVGNPLLLGHDPDWKVFLEFCKENGGYTGCPFPAKLDLQQGQNLLQGLSKLSPSTSGPHSHDYLPQEREGEGGLSLQVEPEWRNEL
2 |  |  |  |  |  |  | no binding | no binding | HA-tagged MOV10 (E1002X) (domain or fragment, UniProt Q9HCE1 1-1001) MPSKFSCRQLREAGQCFESFLVVRGLDMETDRERLRTIYNRDFKISFGTPAPGFSSMLYGMKIANLAYVTKTRVRFFRLDRWADVRFPEKRRMKLGSDISKHHKSLLAKIFYDRAEYLHGKHGVDVEVQGPHEARDGQLLIRLDLNRKEVLTLRLRNGGTQSVTLTHLFPLCRTPQFAFYNEDQELPCPLGPGECYELHVHCKTSFVGYFPATVLWELLGPGESGSEGAGTFYIARFLAAVAHSPLAAQLKPMTPFKRTRITGNPVVTNRIEEGERPDRAKGYDLELSMALGTYYPPPRLRQLLPMLLQGTSIFTAPKEIAEIKAQLETALKWRNYEVKLRLLLHLEELQMEHDIRHYDLESVPMTWDPVDQNPRLLTLEVPGVTESRPSVLRGDHLFALLSSETHQEDPITYKGFVHKVELDRVKLSFSMSLLSRFVDGLTFKVNFTFNRQPLRVQHRALELTGRWLLWPMLFPVAPRDVPLLPSDVKLKLYDRSLESNPEQLQAMRHIVTGTTRPAPYIIFGPPGTGKTVTLVEAIKQVVKHLPKAHILACAPSNSGADLLCQRLRVHLPSSIYRLLAPSRDIRMVPEDIKPCCNWDAKKGEYVFPAKKKLQEYRVLITTLITAGRLVSAQFPIDHFTHIFIDEAGHCMEPESLVAIAGLMEVKETGDPGGQLVLAGDPRQLGPVLRSPLTQKHGLGYSLLERLLTYNSLYKKGPDGYDPQFITKLLRNYRSHPTILDIPNQLYYEGELQACADVVDRERFCRWAGLPRQGFPIIFHGVMGKDEREGNSPSFFNPEEAATVTSYLKLLLAPSSKKGKARLSPRSVGVISPYRKQVEKIRYCITKLDRELRGLDDIKDLKVGSVEEFQGQERSVILISTVRSSQSFVQLDLDFNLGFLKNPKRFNVAVTRAKALLIIVGNPLLLGHDPDWKVFLEFCKENGGYTGCPFPAKLDLQQGQNLLQGLSKLSPSTSGPHSHDYLPQEREGEGGLSLQVEPEWRN
